We go through one molecule from the supplement of paper PMC8728848.

Test in all cases: glycan array binding signal (z-score within array); higher = stronger binding
Conditions in all cases: glycan notation: IUPAC condensed, linker removed

In one experiment the target is Gal(b1-4)GlcNAc(b1-2)Man. The essentials:
(§1)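 Glycan array data came from 3228 arrays in the Consortium for Functional Glycomics database, and only arrays with an available protein sequence were kept. Glycan names were put into IUPAC-condensed notation, and columns mapping to the same glycan were averaged. The binding signal is a within-array Z-score, averaged across arrays of one protein sequence run at different concentrations or buffers and across linkers. A negative Z-score can be read as non-binding.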

In experiment [1] the target is Gal(b1-4)GlcNAc(b1-2)Man(a1-3)Man(b1-4)GlcNAc(b1-4)GlcNAc. Summed up: as §1
Experiment [2] addresses Gal(b1-4)GlcNAc(b1-2)Man(a1-3)[Gal(b1-4)GlcNAc(b1-2)Man(a1-6)]Man(b1-4)GlcNAc(b1-4)GlcNAc. The essentials: as §1
Experiment [3] deals with Gal(b1-4)GlcNAc(b1-2)Man(a1-3)[Gal(b1-4)GlcNAc(b1-2)Man(a1-6)]Man(b1-4)GlcNAc(b1-4)[Fuc(a1-6)]GlcNAc. Summed up: as §1
Experiment [4] concerns the target Gal(b1-4)GlcNAc(b1-2)Man(a1-3)[Gal(b1-4)GlcNAc(b1-2)Man(a1-6)][Gal(b1-4)GlcNAc(b1-4)]Man(b1-4)GlcNAc(b1-4)[Fuc(a1-6)]GlcNAc. The essentials: as §1
For experiment [5], the target named is Gal(b1-4)GlcNAc(b1-2)Man(a1-3)[Gal(b1-4)GlcNAc(b1-2)Man(a1-6)][GlcNAc(b1-4)]Man(b1-4)GlcNAc(b1-4)[Fuc(a1-6)]GlcNAc. Summed up: as §1
Experiment [6] deals with Gal(b1-4)GlcNAc(b1-2)Man(a1-3)[GlcNAc(b1-2)Man(a1-6)]Man(b1-4)GlcNAc(b1-4)GlcNAc. The essentials:
as §1

In experiment [7] the target is Gal(b1-4)GlcNAc(b1-2)Man(a1-3)[GlcNAc(b1-4)][Gal(b1-4)GlcNAc(b1-2)Man(a1-6)]Man(b1-4)GlcNAc(b1-4)GlcNAc. The essentials: as §1
The target of experiment [8] is Gal(b1-4)GlcNAc(b1-2)Man(a1-3)[Man(a1-6)]Man(b1-4)GlcNAc(b1-4)GlcNAc. The essentials:
as §1

In experiment [9] the target is Gal(b1-4)GlcNAc(b1-2)Man(a1-6)Man(b1-4)GlcNAc(b1-4)GlcNAc. The essentials:
as §1

Experiment [10] addresses Gal(b1-4)GlcNAc(b1-2)Man(a1-6)[GlcNAc(b1-2)Man(a1-3)]Man(b1-4)GlcNAc(b1-4)GlcNAc. Summed up:
as §1

The target of experiment [11] is Gal(b1-4)GlcNAc(b1-2)Man(a1-6)[Man(a1-3)]Man(b1-4)GlcNAc(b1-4)GlcNAc. The essentials: as §1
Experiment [12] addresses Gal(b1-4)GlcNAc(b1-2)[Gal(b1-4)GlcNAc(b1-4)]Man(a1-3)[Gal(b1-4)GlcNAc(b1-2)Man(a1-6)]Man(b1-4)GlcNAc(b1-4)GlcNAc. Summed up:
as §1

Experiment [13] has as its target Gal(b1-4)GlcNAc(b1-2)[Gal(b1-4)GlcNAc(b1-4)]Man(a1-3)[Gal(b1-4)GlcNAc(b1-2)[Gal(b1-4)GlcNAc(b1-6)]Man(a1-6)]Man(b1-4)GlcNAc(b1-4)GlcNAc. The essentials: as §1
Experiment [14] has as its target Gal(b1-4)GlcNAc(b1-2)[Gal(b1-4)GlcNAc(b1-4)]Man(a1-3)[GlcNAc(b1-4)][Gal(b1-4)GlcNAc(b1-2)Man(a1-6)]Man(b1-4)GlcNAc(b1-4)GlcNAc. Summed up:
as §1

For experiment [15], the target named is Gal(b1-4)GlcNAc(b1-2)[Gal(b1-4)GlcNAc(b1-4)]Man(a1-3)[GlcNAc(b1-4)][Gal(b1-4)GlcNAc(b1-2)[Gal(b1-4)GlcNAc(b1-6)]Man(a1-6)]Man(b1-4)GlcNAc(b1-4)GlcNAc. The essentials: as §1
The target in experiment [16] is Gal(b1-4)GlcNAc(b1-2)[Gal(b1-4)GlcNAc(b1-6)]Man(a1-6)[Gal(b1-4)GlcNAc(b1-2)Man(a1-3)]Man(b1-4)GlcNAc(b1-4)GlcNAc. The essentials:
as §1

For experiment [17], the target named is Gal(b1-4)GlcNAc(b1-2)[Gal(b1-4)GlcNAc(b1-6)]Man(a1-6)[Gal(b1-4)GlcNAc(b1-2)Man(a1-3)]Man(b1-4)GlcNAc(b1-4)[Fuc(a1-6)]GlcNAc. The essentials: as §1
Experiment [18] has as its target Gal(b1-4)GlcNAc(b1-2)[Gal(b1-4)GlcNAc(b1-6)]Man(a1-6)[GlcNAc(b1-4)][Gal(b1-4)GlcNAc(b1-2)Man(a1-3)]Man(b1-4)GlcNAc(b1-4)GlcNAc. The essentials:
as §1

Experiment [19] concerns the target Gal(b1-4)GlcNAc(b1-2)[Gal(b1-4)GlcNAc(b1-6)]Man(a1-6)[GlcNAc(b1-4)][Gal(b1-4)GlcNAc(b1-2)[Gal(b1-4)GlcNAc(b1-4)]Man(a1-3)]Man(b1-4)GlcNAc(b1-4)[Fuc(a1-6)]GlcNAc. The essentials: as §1
Experiment [20] concerns the target Gal(b1-4)GlcNAc(b1-3)Gal(b1-3)GalNAc. The essentials: as §1
Experiment [21] addresses Gal(b1-4)GlcNAc(b1-3)Gal(b1-3)GlcNAc. The essentials: as §1

The other results are listed elsewhere or left out.

B1: AAL (Agrocybe aegerita), Q6WY08 (protein)
chain: MQGVNIYNISAGTSVDLAAPVTTGDIVTFFSSALNLNAGAGNPNNTTLNLFAENGAYLLHIAFRLQENVIIFNSRQPDGPWLVEQRVSDVANQFAGIDGKAMVTVFDHGDKYQVVINEKTVIQYTKQISGLTLSLSYNATEETSIFSTVVEAVTYTGLALEHHHHHH
Turning to B1, the “glycan array binding signal (z-score)” value with Gal(b1-4)GlcNAc(b1-2)Man was -0.108; in experiment [1], -0.142; in [2], -0.07; in experiment [3], -0.104; in experiment [4], -0.114; in experiment [5] it was -0.138. The “glycan array binding signal (z-score)” value is -0.148 in [6]; -0.13 in experiment [7]; -0.148 in experiment [8]; -0.162 in experiment [9]; -0.145 in [10]; -0.149 in [11]. Also, the “glycan array binding signal (z-score)” value is -0.109 in experiment [12]; -0.09 in experiment [13]; -0.107 in experiment [14]; -0.108 in [15]; -0.127 in experiment [16]; -0.102 in [17]. Further, the “glycan array binding signal (z-score)” value was -0.13 in experiment [18], -0.09 in experiment [19], -0.127 in experiment [20] and -0.161 in experiment [21].
